In PubChem BioAssay AID485344 (National Center for Advancing Translational Sciences (NCATS), 2010):
Among all 340,000 compounds or so, about 6,900 (2%) were called active. Rule as the data show it: active = inhibition above about 30%; inactive = below that, where a call was filed. Only a part is listed here, and it is no random draw. The source gives no active or inactive call for entries shown without one.

Target: D(2) dopamine receptor (Homo sapiens) (UniProt P14416)
Test: HTS Assay for Allosteric Antagonists of the Human D2 Dopamine Receptor: Primary Screen for Antagonists; also: 0% is about no effect
Conditions: HEK293 TREx D2 cells, calcium flux, dopamine EC80; at 10 µM; stronger effect = higher value
Procedure, shortened: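 Tetracycline-induced HEK293 T-REx cells expressing D2 force-coupled to calcium signalling were dye-loaded, exposed to compound for 180 s, then challenged with an EC80 of dopamine; calcium flux was followed kinetically for a further 180 s.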

Sequence of UniProt P14416 (P14416 whole entry, looked up): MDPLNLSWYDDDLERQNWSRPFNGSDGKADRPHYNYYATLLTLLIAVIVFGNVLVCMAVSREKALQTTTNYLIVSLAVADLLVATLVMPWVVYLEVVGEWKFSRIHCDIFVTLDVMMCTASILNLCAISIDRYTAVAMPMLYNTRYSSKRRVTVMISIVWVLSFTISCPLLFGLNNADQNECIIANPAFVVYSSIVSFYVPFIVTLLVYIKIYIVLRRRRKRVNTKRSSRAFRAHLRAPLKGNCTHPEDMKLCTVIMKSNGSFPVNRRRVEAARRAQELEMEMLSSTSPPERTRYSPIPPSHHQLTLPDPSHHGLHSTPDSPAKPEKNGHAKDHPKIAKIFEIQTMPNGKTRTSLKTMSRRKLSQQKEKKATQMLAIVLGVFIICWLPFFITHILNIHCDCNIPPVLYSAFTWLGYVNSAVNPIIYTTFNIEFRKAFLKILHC

SMILES | inhibition
COc1ccccc1CNC(=O)CSc1ccc(-c2sc(-c3ccccc3)nc2C)nn1 | -15.4%
CN(C(=O)CSc1nnc(COc2ccccc2)o1)c1ccccc1 | 3.9%
CCOc1ccc(OCC)c(NC(=O)c2cc3ccccn3n2)c1 | 4.95%
CCC(=O)N1CCc2cc(S(=O)(=O)NC(Cc3ccccc3)C(=O)Nc3ccccc3C)ccc21 (stereo not given) | -17.9%
O=S(=O)(c1ccc(Cl)cc1)c1nc(-c2ccco2)oc1SCc1ccccc1F | 4.61%
CCOC(=O)c1c(NC(=O)c2cc(=O)c3cc(C)cc(C)c3o2)sc(C)c1C | 6.23%
O=C(CSc1nccn1C1CCCC1)Nc1cc(C(F)(F)F)ccc1Cl | 7.74%
Cc1ccc(-c2nn(CC(=O)NCc3ccccc3)c3c2cnc2ccc(F)cc23)cc1C | -0.815%
O=C(c1ccc2c(c1)N(Cc1ccccc1)C(=O)c1ccccc1S2(=O)=O)N1CCc2ccccc21 | 8.99%
COc1ccc(OC)c(-n2c3c(cc(-c4nc(-c5ccc(Cl)cc5)cs4)c2=O)C(=O)CC(C)(C)C3)c1 | -2.3%
CCCNC(=O)CN1C(=O)COc2ccc(S(=O)(=O)N3CCC(C)CC3)cc21 | -0.568%
Cc1c(NC(=O)C(C)(C)Oc2ccc(Cl)cc2)cccc1-c1nc2ccccc2o1 | -1.04%
Cc1ccc(NC(=O)c2ccc(CN3CC(=O)N4CCCCC4C3=O)cc2)c(C)c1 (stereo not given) | 5.88%
COC(=O)c1ccc(NC(=O)CSc2nnc3c4ccccc4n(C(C)C)c3n2)cc1 | 8.36%
COC(=O)c1ccccc1NC(=O)c1nc(-c2ccc(Cl)cc2)n2c1CCCCC2 | 11.3%
Cc1ccc2c(=O)c(C(=O)c3ccc(F)cc3)cn(CC(=O)Nc3ccc4c(c3)OCCO4)c2n1 | -0.42%
COc1ccc(CNC(=O)CC(c2ccc(OC)cc2)N2Cc3ccccc3C2=O)cc1 (stereo not given) | -4.04%
OCCCn1c(-c2ccc(F)cc2)csc1=Nc1ccc(F)cc1 | -10.4%
CC(C)Oc1ccccc1NC(=O)CSc1nccn1C | -7.62%
O=C(O)CSc1nc2ccc(NC(=O)COc3ccc(Cl)cc3)cc2s1 | -19.6%
Cc1ccc(-n2c(=O)c3c(c4cc(C)ccc4n3C)n(CC(=O)c3ccc(Cl)cc3)c2=O)cc1 | -4.35%
CS(=O)(=O)N(CCc1ccccc1)CC(N)=O | active: 31.3%
COc1cc(OC)c(NC2=C(c3ccc(C(F)(F)F)cc3)C(=O)c3ccccc32)cc1Cl | 4.56%
O=C(Cn1c(=O)nc(-c2ccccc2)c2ccccc21)N1CCN(c2ccc(F)cc2)CC1 | -1.1%

SMILES | inhibition
C=C1C(=O)C=C2CN(C(=O)c3ccccc3)[C@@](Cc3ccc(F)cc3)(C(=O)OC)[C@@H]12 | active: 44.1%
O=C(CS(=O)(=O)c1cccc2nsnc12)NCc1ccccc1 | 11.6%
COc1cc(NC(=O)C(Cc2ccccc2)NS(=O)(=O)c2cccs2)cc(OC)c1 (stereo not given) | 13.6%
CC(C)C(=O)Nc1nc2c(s1)CC(C(C)(C)C)CC2 (stereo not given) | 4.97%
CCOc1ccc(CNC(=O)Cn2nc(C)c3c(C)n(-c4ccc(C)cc4)nc3c2=O)cc1 | 5.08%
CC(=O)c1ccc(-n2c(CCC(=O)O)ccc2-c2cccs2)cc1 | 8.86%
O=C(CCS(=O)(=O)c1ccccc1)N(Cc1cccnc1)c1nc2ccc(F)cc2s1 | 23.8%
Cc1ccc(C)c(CSc2nnc(C)n3c2cc2sccc23)c1 | 5.12%
COc1ccc(-c2cnc(C)o2)cc1S(=O)(=O)Nc1ccc(OC(F)(F)F)cc1 | -11.7%
C#CCn1c(=O)n(-c2cccc(Cl)c2C)c(=O)c2c3c(sc21)CN(C(C)=O)CC3 | -8.04%
Cc1ccc(C)c(N2CCN(CCCNC(=O)c3cnn(-c4ccc(F)cc4)c3C3CCN(C(=O)OC(C)(C)C)CC3)CC2)c1 | 3.32%
Cn1c(SCc2ccccc2)nnc1-c1c[nH]c2ccccc12 | active: 35.2%
COc1ccc(CNC(=O)C(C)n2nc(C)c3c(C)n(-c4ccccc4)nc3c2=O)c(OC)c1 (stereo not given) | 1.74%
CCc1nn2c(=O)cc(COC(=O)c3ccccc3NC(=O)COc3ccc(C)c(C)c3)nc2s1 | 16%
CCCCn1cc(S(=O)(=O)c2cc(C)ccc2C)c(=O)c2cc(F)c(F)cc21 | 2.54%
Cc1oc(-c2ccccc2F)nc1CN1CCC(C(=O)NCCc2ccccc2)CC1 | 6.39%
CC(C(=O)Nc1ccc(OC(F)(F)F)cc1)N1Cc2ccccc2C1=O (stereo not given) | -3.46%
Cc1ccc(CNC(=O)Cc2csc3ccccc23)cc1 | -8.16%
CCOc1ccc(CCNC(=O)CSc2nnnn2-c2ccccc2)cc1OCC | -22%
Cc1c(Cl)cccc1-n1ncc(C(=O)NC2CCCCC2)c1C1CCN(C(=O)OC(C)(C)C)CC1 | -9.81%
CCOC(=O)c1cccc(NC(=O)c2oc3c(c2C)-c2nn(CC)cc2CC3)c1 | -22.6%
COc1cccc(NC(=O)/C=C/c2ccc(S(=O)(=O)N3CCOCC3)cc2)c1 | active: 47.3%
COc1ccc(C(=O)COC(=O)c2cc(-c3cccs3)nc3ccccc23)cc1 | -24.6%
COc1ccc(OC)c(Nc2sc(C(=O)c3ccccc3)c(N)c2S(=O)(=O)c2ccccc2)c1 | -1.18%

SMILES | inhibition
O=C(Cn1ncc2c([nH]c3ccccc32)c1=O)NCCCN1CCN(c2ccccc2)CC1 | active: 103%
O=c1oc2ccccc2c(N2CCN(c3ccc(F)cc3)CC2)c1CN1CCCC1 | -11.4%
Cc1cccc(N2CCN(S(=O)(=O)c3cc(C(=O)Nc4ccc(Oc5ccccc5)cc4)ccc3F)CC2)c1C | -13.7%
Cc1ccccc1NC(=O)Cn1c(=O)n(CCc2ccccc2)c(=O)c2ccccc21 | 24.4%
CN(Cc1ccccc1)S(=O)(=O)c1ccc(NC(=O)c2cc(=O)c3ccccc3o2)cc1 | 3.81%
CCOc1ccc(/C=C/c2nc(C#N)c(NC(C)c3ccccc3)o2)cc1 (stereo not given) | -0.0404%
COc1ccc(C)cc1NC(=O)Nc1cccc(OCc2cc(=O)n3ccc(C)cc3n2)c1 | -22.3%
Cc1ccccc1OCC(=O)NCC(c1ccc(Cl)cc1)N1CCCCC1 (stereo not given) | 9.6%
CC(=O)N1CCc2cc(Br)cc(S(=O)(=O)N3CCC(C(=O)Nc4ccc(C(C)C)cc4)CC3)c21 | 23.2%
CCOC(=O)c1ccc(-n2c(CCC(=O)O)ccc2-c2ccccc2)cc1 | -11.9%
COc1ccc(C(=O)CC2(O)C(=O)N(Cc3cccc(C(F)(F)F)c3)c3ccccc32)cc1 (stereo not given) | 4.14%
COc1ccc(N2CCN(S(=O)(=O)c3ccc(-c4ccno4)cc3OC)CC2)cc1 | 9.99%
CC(C)Cc1cc(CN2CCCC(CO)(Cc3cccc(Cl)c3)C2)[nH]n1 (stereo not given) | active: 53.5%
COc1cccc(C(=O)N2c3ncnn3C3(CCCCC3)[C@@H]3CCCC[C@@H]32)c1 | 10.1%
CCCCc1ccc(NC(=O)c2ccc3c(c2)CCN3S(=O)(=O)CC)cc1 | -12%
CCc1ccc(/C=N/NC(=O)c2cc(-c3ccccc3OC)nc3ccccc23)s1 | active: 35.2%
Cc1cccc(C)c1C(OCCN(C)C)C1CCCCC1 (stereo not given) | active: 89.4%
COC(=O)c1ccc(NC(=O)CCCC(=O)OCC(=O)c2ccc(Cl)cc2)cc1 | -9.49%
COc1ccc(C)cc1NS(=O)(=O)c1c(C(=O)N2CCC(C)CC2)c(C)n(C)c1C | 14.6%
Cc1ccc(NC(=O)c2oc3ccc4c(c3c2C)C(=O)CC(C)(C)O4)c(C)c1 | 2%
O=C(COc1ccccc1)NCC(c1ccc(Cl)cc1)N1CCOCC1 (stereo not given) | -10.1%
Cc1ccc(-c2noc(-c3ccc(N4CCN(C)CC4)c([N+](=O)[O-])c3)n2)cc1 | -2.99%
Cc1coc2c1c(C)cc1oc(=O)c(Cc3ccccc3)c(C)c12 | active: 42.8%
COc1ccc(CCNC(=O)c2cccc(Nc3nc4ccccc4nc3-n3nc(C)cc3C)c2)cc1OC | -2.84%

SMILES | inhibition
CCOc1c(Br)cc(C2CC(=O)Nc3cc4c(cc32)OCO4)cc1OC (stereo not given) | 10.5%
O=C(CSc1n[nH]c(-c2ccc(F)cc2)n1)NCc1ccccc1Cl | 8.26%
NC1=NC(c2cccc(Cl)c2)n2c(nc3ccccc32)N1 (stereo not given) | 9.15%
CCOc1ccc2c(c1)c(=O)c(S(=O)(=O)c1ccc(F)cc1)cn2CC(=O)Nc1ccccc1C | -3.11%
CCCS(=O)(=O)Nc1cccc(-c2cn3ccc(C)cc3n2)c1 | -7.84%
CCOC(=O)c1cnn(-c2ccc(C(=O)Nc3ccc(C(C)=O)cc3)cc2)c1N | -21.9%
CCOC(=O)c1c(S(=O)(=O)N2CCCC(C(=O)NCc3cccc(C)c3)C2)c(C)n(C)c1C (stereo not given) | 5.89%
COc1cc2cc(CNc3ccccc3)c(=O)n(CC(=O)Nc3ccc(C)c(Cl)c3)c2cc1OC | 13.2%
COCCN(Cc1ccco1)C(=O)c1cc2c(=O)[nH]c3ccc(C)cc3c2s1 | -2.19%
N#Cc1nc(-c2ccc(COc3ccccc3)o2)oc1N1CCN(c2ccccc2)CC1 | 3.45%
CCc1ccc(CNC(=O)c2cnc3sc(N4CCOCC4)nn3c2=O)cc1 | -1.34%
Cc1cccc(OC(=O)c2cc(-c3ccc(C)c(C)c3)on2)c1 | -5.67%
COc1ccc(Cl)cc1NC(=O)N1CCN(Cc2cc(=O)n3nc(-c4ccccc4)sc3n2)CC1 | -0.905%
O=C1CCSC2(C(=O)N(Cc3ccc(F)cc3)c3ccccc32)N1c1ccc(Cl)cc1 (stereo not given) | 10.5%
CC(=O)Nc1ccc2nc3c(=O)n(C)c(=O)n(C)c3nc2c1C | -26.1%
CCOC(=O)Cn1c(=O)oc2cc(S(=O)(=O)N3CCN(c4cccc(C)c4)C(C)C3)ccc21 (stereo not given) | 11.6%
COc1ccccc1CNC(=O)C(C)n1c(=O)cc(-c2ccccc2)c2c(C)nn(C)c21 (stereo not given) | 9.76%
Cn1c(CN2CCN(c3ccccc3NS(C)(=O)=O)CC2)nc2ccccc21 | active: 32.5%
CC(C)c1nn2c(=O)cc(COC(=O)c3cccs3)nc2s1 | -17.7%
Cc1nc2cccnc2n1-c1cccc(C(=O)NCCN(C)C)c1 | 7.18%
Nc1nc(CN2CCN(c3ccccc3)CC2)nc(Nc2ccc(Cl)cc2)n1 | active: 76.5%
Cc1cccc(NC(=O)CSc2nc3n[nH]c(C)c3c(=N)n2-c2cccc(Cl)c2)c1 | -2.98%
C=CCc1cc(C)ccc1OCC(O)CN1CCN(c2ccccc2)CC1 (stereo not given) | active: 79.9%
